The source of these data is patent US11666594B2, “Antibody-drug conjugates comprising a cyclic dinucleotide” (TAKEDA PHARMACEUTICAL COMPANY LIMITED, priority 2016, dated 2023).

The target in data set [1] is T1, wild-type STING (Homo sapiens (Human), UniProt Q86WV6, H232R). In words: STING-binding test (TR-FRET, displacement of fluorescein-labeled 2′,3′-cGAMP). Conditions: STING binding (μM). On the technique in general: In TR-FRET formats the signal depends on donor and acceptor labels being close together.
Data set [2] concerns the target T1, wild-type STING. Conditions: EC50 without digitonin / EC50 with digitonin.
The target in data set [3] is T1, wild-type STING. The data set can be described thus: cell-based.

SMILES strings stand for the structures. Structures can show the parent of a compound that is named as a salt.

One may read the IC50 as the concentration that inhibits the measured activity by half. Higher therefore signals a need for much substance. As a reminder, the EC50 is the concentration needed to bring the measured effect to its halfway point. Molecule `Nc1ncnc2c1ncn2[C@@H]1O[C@@H]2COP(=O)(S)O[C@@H]3[C@H](O)[C@@H](COP(=O)(S)O[C@H]2[C@H]1F)O[C@H]3n1cc(F)c2c(=O)[nH]cnc21` (stereo partly drawn) [Example 14, 7-((2R,5R,7R,8R,10R,12aR,14R,15R,15aR,16R)-14-(6-amino-9H-purin-9-yl)-15-fluoro-16-hydroxy-2,10-dioxido-2,10-disulfanyloctahydro-12H-5,8-methanofuro[3,2-1][1,3,6,9,11,2,10]pentaoxadiphosphacyclotetradecin-7-yl)-5-fluoro-3,7-dihydro-4H-pyrrolo[2,3-d]pyrimidin-4-one disodium salt] came in with an IC50 on wild-type STING [1] of 0.013 µM. For the same molecule, the “Cellular permeability Ratio EC50s (A)/(B)” value at wild-type STING [2] was found to be 2.6. Also, the midpoint of the response on wild-type STING [3], the EC50, lay at 0.34 µM. For the same molecule, on wild-type STING [3] (HEK-293T, 20 h, read-out: activity level of test compound (30 μM), 30 μM, 2′,3′-cGAMP (30 μM) = 100%, solvent = 0%, 20 hr), the activation at 30 µM amounted to 71%.
